In the data set the test system is ATP. Put plainly: switch fluorescence ratio, 500 uM ATP over buffer (Cy3 cluster intensity, sum of 5 cycles each) (fold (ratio)); higher = stronger signal-on switching upon ATP binding; sequences stand for … in TCGTCGGCAGCGTCAGATGTGTATAAGAGACAGTTTTTTTTTTTTTTTTTTTTTTTTT…TC. As to conditions: aptamer strand: ATP DNA aptamer (quencher-CACCTGGGGGAGTATTGCGGAGGAAGG + anchor), 100 nM annealed; ATP concentration: 500 uM; one replicate. In outline:
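Clusters carrying Cy3-labelled switching strands on a modified Illumina MiSeq flow-cell were annealed to 100 nM quencher-labelled ATP aptamer and imaged in selection buffer. They were imaged again after 15 min with 500 uM ATP at 22 °C, over five buffer/ATP cycles with NaOH stripping and re-annealing in between. For each cluster, the fluorescence ratio is the summed Cy3 intensity of the target cycles divided by that of the buffer cycles, averaged per switch-domain sequence. Clusters outside 100-1000 RFU were left out.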

Sequences with one replicate were seen in a single cluster, so their values are uncertain.
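Note: ATP exposure 15 min at 22 °C before imaging.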

On to TATTGGAATA, for which the switch fluorescence ratio came out at 0.979.
On to GATGGCCGCT, for which the switch fluorescence ratio is 0.993.
The same measure for CTTGTCGACT: 0.974.
Take CGTAGAAGG: the switch fluorescence ratio was determined as 1.
The same measure for GCGCATAATT: 1.01; for CACTGGGTGA: 1.03; for GCGAGGTTG: 0.99.
As to TCGTACGAAT, the switch fluorescence ratio amounted to 0.968.
Consider TAAATTCGGC, for which the switch fluorescence ratio worked out at 0.984.
Consider TAATGAGGAG, for which the switch fluorescence ratio was determined as 1.
For CAAGGTGAAG the value was 0.983; for GAATCATTAC, 1.25.
For the sequence CTATCAGGGA, the switch fluorescence ratio was 0.991.
For TCATACGGAT the value was 1.06; for CGGCGGCCGG, 1.01.
Consider GGTTCCCGTC, for which the switch fluorescence ratio was 0.883.
The same measure for CAAGGCGGAG: 0.967; for TTTGTGGAAG: 1.01.
In the case of CCGGGGCCGA, the switch fluorescence ratio was 1.02.
For GCGGTTGCCG the value was 1.07; for TTGCCACGTA, 1.04.
As to TCGAAACACG, the switch fluorescence ratio is 1.05.
The same measure for AGGGGTTAG: 0.99; for TGCTGCTTCT: 0.971.
With ATTGTTCACT, the switch fluorescence ratio worked out at 0.949.
Regarding CGTTTTAGCA, the switch fluorescence ratio was determined as 1.02.
On to CTTCGGAGAT, for which the switch fluorescence ratio stood at 1.02.
Regarding GAGACAGGTT, the switch fluorescence ratio was determined as 1.04.
The same measure for TCAGTAAACG: 1.
For AGTAGACTCT the value was 1.
ATCCTTAATA: the switch fluorescence ratio was found to be 1.01.
For the sequence AGTGCAG, the switch fluorescence ratio was determined as 1.
As to GACTATTTGT, the switch fluorescence ratio came out at 1.03.
With AATCAAGTTT, the switch fluorescence ratio is 1.04.
The same measure for CTGCGGCTGA: 0.974; for TAACGACCTC: 1.12; for GAGATCAACT: 0.957.
The same measure for AACTTAGGGT: 0.939; for TCAACGACCC: 1.24.
For AAGAGCACTA the value was 1.02; for TTGCATACAA, 1.06; for TTTACAGGGC, 1.06.
On to ACCCCCAGAG, for which the switch fluorescence ratio is 6.13.
For ACCAGGGAAC the value was 1.05.
For CCGTCTTCT the value was 0.984; for AGAGATCTGA, 1.01; for ATCTTGGGTC, 0.976.
The same measure for CCCCGGAC: 1; for GCCATGGGAA: 1.01; for GTGGTGCGGT: 0.998.
As to CACGGACGGG, the switch fluorescence ratio worked out at 1.17.
For the sequence GGCACGGATT, the switch fluorescence ratio is 1.04.
For CATGATTCAT the value was 1.04; for ATCGGCTACG, 1.03.
For CGCAGGGACC the value was 1.13; for GACGTCACCC, 1.56.
The same measure for AATCCATAGG: 1.01; for TCTCACATAT: 1.03.
For TAATCGGATA, the switch fluorescence ratio worked out at 0.964.
As to CTTCGAGACA, the switch fluorescence ratio is 1.
For TGCGGTCACG, the switch fluorescence ratio was found to be 0.997.
The same measure for GGGGGACGCG: 0.968; for AGGATAGGAC: 0.963; for TGCAGTTTTA: 1.04.
For CGGAAGGAAA the value was 1.05.
The same measure for TCAATGATGA: 1.01; for CAGTTCAGAT: 0.98.
With CTAGAATACG, the switch fluorescence ratio came out at 1.06.
The same measure for CGTCATTG: 1.04; for GGTTTGCAAC: 1.02; for CCCTATATCG: 0.957.
For TAACTCACG the value was 1.43.
For TGCTTAAGGG the value was 0.978; for CTAGGCTCCT, 1.06; for GTCTTAGTTT, 0.967.
For the sequence GATTCCCTGC, the switch fluorescence ratio came to 1.05.
For TGCACAATC the value was 1.14.
The same measure for ATGACGGGGA: 1; for TAGTATGAAT: 0.993; for GGGGCATCCA: 0.998.
The same measure for GTCCAGCGCG: 1.07; for GAGTGCTTAT: 1.03; for CCTAGGACGT: 0.953.
Regarding TTGATATTAT, the switch fluorescence ratio is 0.99.
For TCCCAAAATT, the switch fluorescence ratio came to 1.01.
The same measure for TTTTACTA: 1.
The same measure for TGATTACGAA: 1.05; for CTCTCTCTGG: 1.15; for AGGATGGATG: 0.995.
For TTAGTCCAGT the value was 1.04; for GGTATTATTA, 0.977.
As to CCCAGCTTCA, the switch fluorescence ratio came to 1.14.
On to GGTGGGCATT, for which the switch fluorescence ratio stood at 0.984.
With CGAATTATGG, the switch fluorescence ratio is 1.
As for AATATGGTAG, the switch fluorescence ratio stood at 1.
The same measure for GCGCATGAAT: 0.958; for GACTTCCCCG: 2.89; for TTTTACTCGT: 1.03.
The same measure for ATTAAGAGC: 1; for ATAATATG: 0.969; for AATCGGTCAT: 1.04.
For TTAGCTACTT the value was 1.05.
Regarding GTGGTGCGTG, the switch fluorescence ratio amounted to 0.98.
The same measure for ATAAGCAAAT: 1.07.
For GTTGGCGGAG the value was 1.01; for AATCGCGTCT, 1.13; for GATAACATAA, 0.943.
For TAGATTGTAC the value was 1.03; for AGAAACCCTG, 0.986.
Turning to TCCGACCTAG, the switch fluorescence ratio turned out to be 1.08.
The same measure for GTTTGCAACC: 1.06; for TATAATGAAG: 1.01; for ATGGGGTAG: 1.01.
As for TGTAGGACAG, the switch fluorescence ratio was found to be 0.958.
On to CTGATTTGGG, for which the switch fluorescence ratio came to 1.04.
ATCGAGGCTT: the switch fluorescence ratio was 1.
The same measure for TAGTTCGTGG: 0.896; for TCAATTGCGG: 0.985.
As to TTTCACAAAT, the switch fluorescence ratio amounted to 1.
As for TGAGATGCAA, the switch fluorescence ratio is 1.05.

The values are drawn from the supplement of paper PMC10126150.
